The whole screen tested about 350,000 compounds, of which about 31,000 (8.9%) were called active. Inconclusive means that the source gave no clear call. Such entries were picked first, then a sample of the others. Calls follow the shape of the dose curve; as a rule, active = well fitted inhibition curve with a large enough effect; inconclusive = small, poorly fitted or top-dose-only effect; inactive = no such curve, though single readings can be large or run the other way. Where the call is inconclusive, the potency comes from a doubtful curve fit.
Molecular target: Histone-lysine N-methyltransferase EHMT2 (Homo sapiens) (UniProt Q96KQ7)
UniProt Q96KQ7, sequence (Q96KQ7 whole entry, looked up): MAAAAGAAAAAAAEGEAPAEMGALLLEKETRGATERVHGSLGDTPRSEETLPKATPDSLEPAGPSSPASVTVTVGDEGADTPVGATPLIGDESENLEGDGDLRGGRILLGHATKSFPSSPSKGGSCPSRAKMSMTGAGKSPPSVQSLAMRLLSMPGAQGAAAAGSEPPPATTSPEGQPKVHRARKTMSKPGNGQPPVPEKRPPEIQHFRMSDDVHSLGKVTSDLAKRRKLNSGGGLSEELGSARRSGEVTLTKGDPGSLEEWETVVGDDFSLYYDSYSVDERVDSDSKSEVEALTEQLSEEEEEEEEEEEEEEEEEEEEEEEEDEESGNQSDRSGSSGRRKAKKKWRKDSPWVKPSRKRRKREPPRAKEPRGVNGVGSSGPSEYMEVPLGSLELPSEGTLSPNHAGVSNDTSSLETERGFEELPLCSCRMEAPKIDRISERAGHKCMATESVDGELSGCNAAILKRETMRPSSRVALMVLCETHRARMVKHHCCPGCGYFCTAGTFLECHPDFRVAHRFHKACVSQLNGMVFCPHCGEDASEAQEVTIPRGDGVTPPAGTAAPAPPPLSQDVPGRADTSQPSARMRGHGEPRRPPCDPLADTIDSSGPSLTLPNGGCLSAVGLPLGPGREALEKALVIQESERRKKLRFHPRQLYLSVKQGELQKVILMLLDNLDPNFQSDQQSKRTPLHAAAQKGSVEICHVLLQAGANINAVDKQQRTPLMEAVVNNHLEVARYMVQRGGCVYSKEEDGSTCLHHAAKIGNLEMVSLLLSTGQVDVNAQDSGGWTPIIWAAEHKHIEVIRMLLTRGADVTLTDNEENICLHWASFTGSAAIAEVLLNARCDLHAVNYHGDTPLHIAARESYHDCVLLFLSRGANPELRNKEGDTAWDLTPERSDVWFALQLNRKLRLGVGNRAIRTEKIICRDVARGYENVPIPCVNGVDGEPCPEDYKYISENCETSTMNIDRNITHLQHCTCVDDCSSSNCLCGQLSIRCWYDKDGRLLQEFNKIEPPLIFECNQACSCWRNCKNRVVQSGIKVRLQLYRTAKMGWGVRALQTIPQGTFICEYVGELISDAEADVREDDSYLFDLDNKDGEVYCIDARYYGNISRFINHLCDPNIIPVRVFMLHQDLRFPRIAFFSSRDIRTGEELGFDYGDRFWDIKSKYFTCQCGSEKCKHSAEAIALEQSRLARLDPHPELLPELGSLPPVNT
Test: qHTS Assay for Inhibitors of Histone Lysine Methyltransferase G9a; also: nearly all actives have a fitted effect of over 75% in size
Details: G9a H3K9 monomethylation, AlphaScreen, 2 h; activity, negative = inhibition: at 59 µM (top of the series) unless noted
Summary of the method: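 Methyltransferase reactions run at room temperature for 2 h (20 nM enzyme, 500 nM biotin-H3K9 peptide, 20 uM SAM) after a 15 min compound preincubation; product detected by AlphaScreen beads and anti-H3K9me1 antibody.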
% is scaled to controls: 0 for no effect and ±100 for the full control effect; potency is read from the fitted curve at half-maximal effect; tags tell the direction and shape of the fitted curve.

Structure (SMILES) | Potency | activity, negative = inhibition
CCCCN(CCCNC(=O)C1CCN(S(=O)(=O)N2CCOCC2)CC1)Cc1ccccc1 | inconclusive: 56.2 µM [inhibitor, partial curve, poor fit] | –
COC(=O)CN1C(=O)Nc2ccc(Cl)cc2C1c1ccccc1 (centres undefined) | inactive | –
COC(=O)NNC(=S)Nc1ccc(Br)cc1 | active: 50.1 µM | –
Cc1ccc(C)c2nc3sc(C(=O)N4CCCc5ccccc54)c(N)c3cc12 | inconclusive: 14.1 µM [inhibitor, partial curve, poor fit] | –
COc1ccc(C2NC(=S)NC3=C2CCCC3=C2SCCS2)cc1 (centres undefined) | inconclusive: 89.1 µM [inhibitor, partial curve, poor fit] | –
CCN(CC)CCCNc1oc(/C=C/c2ccc(OC)c(OC)c2)nc1C#N | inactive | –
COc1cccc(OCC(O)CN2CCN(c3ncccn3)CC2)c1 (centres undefined) | inactive | –
Cc1ccc(Nc2nc3nonc3nc2Nc2cccc(C(F)(F)F)c2)cc1Cl | inconclusive: 39.8 µM [inhibitor, partial curve, poor fit] | –
CC(C)C(NC(=O)/C(=C/c1ccco1)NC(=O)c1ccc(Br)o1)C(=O)O (centres undefined) | active: 22.4 µM | –
CN(C)/C=C(/C(=O)c1ccc(Cl)cc1)n1cncn1 | inactive | –
CC(C)(C)NC(=O)CN(C(=O)c1ccc(CN2CCOCC2)o1)c1ccc2c(c1)OCCO2 | inconclusive: 89.1 µM [inhibitor, single point] | –
O=c1cc(CSc2nnc3ccccn23)c2c(ccc3ccccc32)o1 | inconclusive: 39.8 µM [inhibitor, single point] | –
Cc1cc(C)cc(NC(=O)NCCc2c(C)nn(C)c2C)c1 | inactive | –
COC(=O)c1ccccc1NC(=O)CN1C(=O)C2CCCN2c2ncc(Cl)cc21 (centres undefined) | – | inconclusive: -89.8% [inhibitor]
COc1ccc(-c2nn3c(-c4ccc(F)cc4)nnc3s2)cc1 | active: 44.7 µM | –
CCc1ccc(C(=O)c2cn(CC(=O)Nc3ccc4c(c3)OCO4)c3ccc(CC)cc3c2=O)cc1 | inconclusive: 35.5 µM [inhibitor, single point] | –
CCCCN(C)C(=O)c1coc(=O)c2ccccc12 | – | inactive: 25% [at 12.7 µM]
S=c1nc(C23CC4CC(CC(C4)C2)C3)nc2sccn12 | inconclusive: 39.8 µM [inhibitor, partial curve] | –
CN(C)c1oc(-c2cccs2)nc1C#N | inconclusive: 50.1 µM [inhibitor, partial curve, poor fit] | –
COC(=O)CSc1nc2ccc(C)cc2[nH]1 | active: 28.2 µM | –
COc1ccc(C(=O)O/N=C(\N)c2ccc(OC)c(OC)c2)cc1 | inconclusive: 1.26 µM [inhibitor, partial curve, poor fit] | –
O=S(=O)(c1ccc(F)c(F)c1F)N1CCN(C(=S)NC2CC3CCC2C3)CC1 (centres undefined) | inconclusive: 0.794 µM [inhibitor, full curve, poor fit] | –
CCOC(=O)c1nnc(-c2ccccc2)[nH]c1=O | inconclusive: 44.7 µM [inhibitor, partial curve] | –

Structure (SMILES) | Potency | activity, negative = inhibition
Cc1n[nH]c(C)c1S(=O)(=O)N(CC(=O)Nc1ccc2c(c1)OCCO2)c1ccc(C(C)C)cc1 | inconclusive: 89.1 µM [inhibitor, single point] | –
CNS(=O)(=O)c1cc(S(=O)(=O)NC)c2cccc3c2c1NC3=O | inconclusive: 89.1 µM [inhibitor, single point] | –
COc1cccc(CN2CC(C(=O)NC3CCC3)CCC2=O)c1 (centres undefined) | inconclusive: 79.4 µM [inhibitor, single point] | –
O=C(O)c1ccccc1-c1ccc(/C=c2\sc3nc4cc(Br)cnc4n3c2=O)o1 | inconclusive: 3.16 µM [inhibitor, partial curve, poor fit] | –
CS(=O)(=O)Nc1ccccc1C(=O)OCC(=O)N1CCC(c2ccccc2)=N1 | inconclusive: 3.55 µM [inhibitor, partial curve, poor fit] | –
Cc1ccc(S(=O)(=O)NC(=O)Nc2c(C)n(C)n(-c3ccccc3)c2=O)cc1 | inactive | –
Cc1ccc2nccc(C(=O)N3CCCC(N4CCN(c5ccc(F)cc5)CC4)C3)c2c1 (centres undefined) | inconclusive: 89.1 µM [inhibitor, single point] | –
CN(C)c1ccc(C(CNS(=O)(=O)c2cccc([N+](=O)[O-])c2)N2CCOCC2)cc1 (centres undefined) | – | inactive: 1.53% [at 0.501 µM]
CCN(CC)c1ccc2nc3ccccc3[n+](CC)c2c1 | active: 14.1 µM | –
Cc1ccc(S(=O)(=O)n2nc(C)c(S(=O)(=O)N3CCCCCC3)c2C)cc1 | inactive | –
Cc1nc(Nc2ccc(O)cc2)c2c3c(sc2n1)CCCC3 | inconclusive: 50.1 µM [inhibitor, partial curve] | –
O=C(CCN1C(=O)/C(=C\c2ccccc2)SC1=S)N1CCCCC1 | inactive | –
CCOc1ccc(CNC(=O)c2cccc(NC(=O)N3CCSc4ncccc43)c2)cc1OC | inactive | –
O=C(CSc1nccn(-c2ccc(Br)cc2)c1=O)NCc1ccccc1 | inconclusive: 31.6 µM [inhibitor, partial curve] | –
CC(C)C(=O)Nc1nnc2n1CCS2 | inconclusive: 28.2 µM [inhibitor, single point] | –
O=C(NCc1ccccc1)C1=C[C@H](C2CC2)C[C@H](OCc2ccc(CO)cc2)O1 | – | inconclusive: -73.9% [inhibitor]
CN(Cc1ccccc1Cl)C(=O)CCNC(=O)c1ccco1 | inconclusive: 89.1 µM [inhibitor, single point] | –
CC(=O)Nc1ccc(S(=O)(=O)N2CCCC3CCCCC32)cc1 (centres undefined) | inconclusive: 25.1 µM [inhibitor, single point] | –
COc1ccc(N2CCN(c3oc(Cc4cccc5ccccc45)nc3C#N)CC2)cc1 | – | inactive: 7.47% [at 0.0925 µM]
COc1ccc(CCNS(=O)(=O)c2cccc3cccnc23)cc1OC | inconclusive: 79.4 µM [inhibitor, single point] | –
CCn1c(SCC(=O)Nc2cc(C)on2)nc2c(c1=O)SCC2 | inactive | –
CCCc1nc2ccccc2n1C(=S)SC | inconclusive: 39.8 µM [inhibitor, partial curve, poor fit] | –
CCC1=NN2C(=N)/C(=C\c3cccn3-c3c(C)cccc3C)C(=O)N=C2S1 | inconclusive: 20 µM [inhibitor, partial curve, poor fit] | –

Structure (SMILES) | Potency | activity, negative = inhibition
O=C(COC(=O)c1cnccn1)Nc1ncc(Cl)cc1Cl | active: 28.2 µM | –
COc1ncc2nc(-c3ccc(F)cc3)c(=O)n(Cc3ccc(F)cc3)c2n1 | – | inactive: 0.0707% [at 0.501 µM]
Cc1ccc(C)c(N2CCN(C(=O)c3cn(CC(C)C)c(=O)c4c3c3ccccc3n4C)CC2)c1 | inconclusive: 10 µM [inhibitor, partial curve, poor fit] | –
Cc1ccc2nc(N3CCN(C)CC3)c(C#N)cc2c1 | inconclusive: 89.1 µM [inhibitor, single point] | –
N#CC1=C(N)OC2=C(C(=O)CCC2)C1c1ccccc1 (centres undefined) | inactive | –
COc1cc(C2C(C(C)=O)=C(O)C(=O)N2c2ccc(C)cc2)ccc1O (centres undefined) | – | inconclusive: -70% [inhibitor]
COc1cc(NC(=O)c2[nH]c(C)c(C(C)=O)c2C)cc(OC)c1OC | inconclusive: 89.1 µM [inhibitor, single point] | –
Nc1c(C(=O)CSc2nnnn2-c2ccc(O)cc2)c(=O)[nH]c(=O)n1C1CC1 | inconclusive: 31.6 µM [inhibitor, partial curve, poor fit] | –
COc1ccccc1/C=C1\SC(=S)N(NS(=O)(=O)c2ccc(C)cc2)C1=O | inconclusive: 44.7 µM [inhibitor, partial curve] | –
COCCNC(=O)CCC(=O)NNc1nc2ccccc2c2nc(C)nn12 | inactive | –
CCCn1c(=O)c2ccccc2n2c(SCCOc3ccc(C)cc3)nnc12 | inconclusive: 39.8 µM [inhibitor, single point] | –
CCn1c2ccc(CC(=O)O)cc2c2cc(CC(=O)O)ccc21 | inconclusive: 100 µM [inhibitor, single point] | –
COc1cccc(NC(=O)COC(=O)CNS(=O)(=O)c2c(F)cccc2F)c1 | inconclusive: 89.1 µM [inhibitor, single point] | –
C[N+]1(C2CCC3CCC2C3O)CCCC1 (centres undefined) | active: 11.2 µM | –
Cc1ccc2c(CNCCc3ccccc3)c(C(=O)O)n(Cc3ccccc3C)c2c1 | inactive | –
CC1CCc2c(sc(NC(=O)Cn3nc(C(F)(F)F)c4c3CCCCC4)c2C#N)C1 (centres undefined) | inconclusive: 7.94 µM [inhibitor, full curve, poor fit] | –
c1ccc2c(c1)CCN(C1=Nc3cccc4cccc1c34)C2 | inconclusive: 39.8 µM [inhibitor, partial curve] | –
Cc1nnc(N/N=C/c2cc([N+](=O)[O-])c(N3CCC(C)CC3)cc2N2CCC(C)CC2)n1N | – | inconclusive: -86.2% [inhibitor]
Cc1ccc(S(=O)(=O)NNC(=O)C(=O)NNc2ccccn2)cc1 | – | inactive: 35.7% [at 2.33 µM]
COc1ccc(NC(=O)CN2CCN(CC(=O)Nc3ccc(F)cc3F)CC2)cc1 | inconclusive: 79.4 µM [inhibitor, single point] | –
O=C(Oc1cc(-c2ccccc2)no1)c1cccc(C(F)(F)F)c1 | inactive | –
COc1ccc(NC(=O)Cn2c(=O)n(-c3cc(C)cc(C)c3)c(=O)c3oc4ccccc4c32)cc1OC | inconclusive: 17.8 µM [inhibitor, partial curve, poor fit] | –
CCOC(=O)c1cnn2cc(-c3[nH]ncc3[N+](=O)[O-])cnc12 | inconclusive: 4.47 µM [inhibitor, single point] | –
